Laboratory results reported in ChEMBL document CHEMBL4888484, “Replenishing the malaria drug discovery pipeline: Screening and hit evaluation of the MMV Hit Generation Library 1 (HGL1) against asexual blood stage Plasmodium falciparum ,using a nano luciferase reporter read-out” (2022).
The campaign covered roughly 150,000 compounds. About 540 (0.36%) showed an effect of 50% or more. Some of the results follow.

These compounds were tested on Plasmodium falciparum (assay: Primary screen in NF54 nanoGlo assay, in single point, at 2uM, 72h; a lower Z score goes with more inhibition). Conditions: timepoint 72 hour.
Assay type: functional, Erythrocyte

First: Cc1cnc(NCC[C@H]2CCCN(C)C2)nc1N(C)C
Second: CCn1nc(CN2CCC(NC(=O)c3cnn(C)c3C)CC2)c2c1CCOC2
The “% Inhibition” value of the first is lower: -6% for the first, 7% for the second.

Compared with `C[C@H]1CS(=O)(=O)CCN1CCCc1nc(-c2ccccc2)no1`, `CC(C)(C)n1nc(-c2c[nH]c3ccccc23)nc1[C@H]1CCS(=O)(=O)C1` is higher in “% Inhibition” value: -10% for the first, -4% for the second.

First: Cc1cc(N(C)CCn2cccn2)n2nc(C)cc2n1
Second: CCn1cc(CNc2ccn(CCOC)n2)cn1
The “% Inhibition” value of the first is lower: -1% for the first, 4% for the second.

First: CC(C)(C)CC(=O)NC[C@H](O)c1ccc(-c2ccco2)o1
Second: Cc1cc(C(=O)N[C@@H](COCC(C)C)c2ccco2)n(C)n1
The “% Inhibition” value of the first is higher: 7% for the first, -4% for the second.

Compared with `Cc1nc(CCCC(=O)N[C@H]2CCN(C(C)C)C2=O)cs1`, `CNC(=O)[C@@H]1CC[C@](C)(C(=O)NCCCc2cccnc2)C1(C)C` is lower in “% Inhibition” value: -5% for the first, -9% for the second.

First: O=C(NCCC1=CCCCC1)C1CCN(S(=O)(=O)c2cc(Cl)ccc2Cl)CC1
Second: Cc1cccc(CN2CCC(C(=O)NCc3ccc(N4CCN(C)CC4)cc3)CC2)c1
The “% Inhibition” value of the first is lower: 3% for the first, 12% for the second.

First: Cc1noc(C)c1CN1CC[C@H](NC(=O)c2ccccc2C#N)[C@@H](O)C1
Second: CCn1nccc1C(=O)N1CCCN(Cc2c(C)noc2C)CC1
The “% Inhibition” value of the first is lower: -19% for the first, 0% for the second.

Going from `O=S(=O)(CCc1ccccc1)N1CCC(n2ccnn2)CC1` to `O=C(N1CCOCC1)C1(F)CCN(S(=O)(=O)Cc2ccccc2)CC1`, the “% Inhibition” value falls from -3% to -7%.

Going from `COc1ccccc1CNC(=O)c1cn(CC2(O)CCN(Cc3ccccc3)CC2)nn1` to `CC[C@@H](C(=O)N1CC(Oc2cccnc2)C1)c1ccccc1`, the “% Inhibition” value falls from 39% to -8%.

First: CCn1ncc(Br)c1C(=O)NCCc1cn(C)cn1
Second: CN(Cc1cnccn1)C(=O)[C@@H]1COc2ccc(Br)cc21
The “% Inhibition” value of the first is lower: -17% for the first, -1% for the second.

Going from `O=c1c2cc(-c3cccc(Br)c3)nn2ccn1C[C@H](O)c1ccc(Cl)cc1` to `Cc1ccc(-c2nc(Cn3nnc(-c4nc(-c5cccc(F)c5)no4)c3C)c(C)o2)cc1`, the “% Inhibition” value falls from 0% to -14%.

Going from `Cc1c(C(=O)NC[C@H]2COCCO2)c2ccccc2n(C)c1=O` to `CCN(CC)C(=O)c1cc(-c2ccc(C)s2)cc(S(=O)(=O)N2CCOCC2)c1`, the “% Inhibition” value rises from -3% to 3%.

Compared with `CC(NCC(O)c1cnn(C)c1)c1cc(Cl)cc(Cl)c1F` (stereo unspecified), `Cn1ncnc1CNc1c(F)cccc1Cl` is higher in “% Inhibition” value: -18% for the first, -9% for the second.

`CC(C)Cc1ccc(CN2C[C@@H](CN(C)C)[C@@H](CO)C2)s1` and `C[C@@H](C(=O)N(C)C)S(=O)(=O)N(C)C1CCC(CO)CC1` (stereo partly specified) are the same in “% Inhibition” value: -4% for the first, -4% for the second.

Going from `O=C(N[C@@H](C1CC1)C1(CO)CCOCC1)c1ccc(O)c(F)c1` to `CN1CCC[C@H](Nc2cc(C(=O)N3CCOCC3)ccn2)C1`, the “% Inhibition” value rises from -7% to -5%.

First: CN1C[C@@]2(CCN(C(=O)NCc3cnc4c(c3)CCC4)C2)OCC1=O
Second: CCOC(=O)CNC(=O)N1CCC2(CC1)NC(=O)c1ccc(Cl)cc1N2
The “% Inhibition” value of the first is higher: 2% for the first, -11% for the second.

Compared with `Cc1nccn1[C@@H](C)C(=O)N1CCCCCCC1`, `O=C(CN1CCCCCC1=O)N1CCCCCC1` is lower in “% Inhibition” value: -10% for the first, -11% for the second.

First: C[C@H](NC(=O)Nc1ccn(C2CCN(C)CC2)n1)c1ccon1
Second: CCc1noc(CN2N=C(C(=O)N3CCCCCC3)S(=O)(=O)c3ccc(C)cc32)n1
The “% Inhibition” value of the first is higher: 4% for the first, -7% for the second.

`C[C@H]1CN(C)CCN1CC1CCN(C(=O)CCC2CCCCC2)CC1` and `O=C(CCc1nnc(CCc2ccccc2)o1)N1CCC(CN2CCCCC2)CC1` are the same in “% Inhibition” value: -7% for the first, -7% for the second.

Compared with `Cc1noc(CNC(=O)c2nnc(C(C)(C)C)[nH]2)n1`, `Cc1nc(N)nc(C)c1Cc1nc(C(C)C)nn1-c1ccccc1` is lower in “% Inhibition” value: -9% for the first, -15% for the second.

Going from `Cc1ccc(O)c(C(=O)N2CCc3c(nc(C)nc3N3CCCC3)C2)c1` to `O=C1CC[C@@H](C(=O)NCC2CCN(C(=O)c3cccs3)CC2)N1`, the “% Inhibition” value rises from -8% to 8%.

For `CCN(CC)c1ccc(/C(N)=N/O)cc1`, the “% Inhibition” value was 25%.

First: Cc1cnc(NCC[C@H]2CCCN(C)C2)nc1N(C)C
Second: CCn1nc(CN2CCC(NC(=O)c3cnn(C)c3C)CC2)c2c1CCOC2
The Z score of the first is higher: 0.65 for the first, -0.85 for the second.

First: C[C@H]1CS(=O)(=O)CCN1CCCc1nc(-c2ccccc2)no1
Second: CC(C)(C)n1nc(-c2c[nH]c3ccccc23)nc1[C@H]1CCS(=O)(=O)C1
The Z score of the first is higher: 1.84 for the first, 0.83 for the second.

Going from `Cc1cc(N(C)CCn2cccn2)n2nc(C)cc2n1` to `CCn1cc(CNc2ccn(CCOC)n2)cn1`, the Z score falls from 0.07 to -0.84.

Going from `CC(C)(C)CC(=O)NC[C@H](O)c1ccc(-c2ccco2)o1` to `Cc1cc(C(=O)N[C@@H](COCC(C)C)c2ccco2)n(C)n1`, the Z score rises from -0.99 to 0.71.

Compared with `Cc1nc(CCCC(=O)N[C@H]2CCN(C(C)C)C2=O)cs1`, `CNC(=O)[C@@H]1CC[C@](C)(C(=O)NCCCc2cccnc2)C1(C)C` is higher in Z score: 0.65 for the first, 1.33 for the second.

Going from `O=C(NCCC1=CCCCC1)C1CCN(S(=O)(=O)c2cc(Cl)ccc2Cl)CC1` to `Cc1cccc(CN2CCC(C(=O)NCc3ccc(N4CCN(C)CC4)cc3)CC2)c1`, the Z score falls from -0.42 to -2.08.

Going from `Cc1noc(C)c1CN1CC[C@H](NC(=O)c2ccccc2C#N)[C@@H](O)C1` to `CCn1nccc1C(=O)N1CCCN(Cc2c(C)noc2C)CC1`, the Z score falls from 1.79 to -0.05.

Going from `O=S(=O)(CCc1ccccc1)N1CCC(n2ccnn2)CC1` to `O=C(N1CCOCC1)C1(F)CCN(S(=O)(=O)Cc2ccccc2)CC1`, the Z score rises from 0.49 to 0.92.

First: COc1ccccc1CNC(=O)c1cn(CC2(O)CCN(Cc3ccccc3)CC2)nn1
Second: CC[C@@H](C(=O)N1CC(Oc2cccnc2)C1)c1ccccc1
The Z score of the first is lower: -1.11 for the first, 1.51 for the second.

Compared with `CCn1ncc(Br)c1C(=O)NCCc1cn(C)cn1`, `CN(Cc1cnccn1)C(=O)[C@@H]1COc2ccc(Br)cc21` is lower in Z score: 1.83 for the first, 0.11 for the second.

Compared with `O=c1c2cc(-c3cccc(Br)c3)nn2ccn1C[C@H](O)c1ccc(Cl)cc1`, `Cc1ccc(-c2nc(Cn3nnc(-c4nc(-c5cccc(F)c5)no4)c3C)c(C)o2)cc1` is higher in Z score: -0.05 for the first, 1.94 for the second.

Going from `Cc1c(C(=O)NC[C@H]2COCCO2)c2ccccc2n(C)c1=O` to `CCN(CC)C(=O)c1cc(-c2ccc(C)s2)cc(S(=O)(=O)N2CCOCC2)c1`, the Z score falls from 0.33 to -0.34.

Compared with `CC(NCC(O)c1cnn(C)c1)c1cc(Cl)cc(Cl)c1F` (stereo unspecified), `Cn1ncnc1CNc1c(F)cccc1Cl` is lower in Z score: 3.63 for the first, 0.95 for the second.

Compared with `CC(C)Cc1ccc(CN2C[C@@H](CN(C)C)[C@@H](CO)C2)s1`, `C[C@@H](C(=O)N(C)C)S(=O)(=O)N(C)C1CCC(CO)CC1` (stereo partly specified) is higher in Z score: 0.65 for the first, 0.79 for the second.

First: O=C(N[C@@H](C1CC1)C1(CO)CCOCC1)c1ccc(O)c(F)c1
Second: CN1CCC[C@H](Nc2cc(C(=O)N3CCOCC3)ccn2)C1
The Z score of the first is higher: 1.27 for the first, 0.97 for the second.

Compared with `CN1C[C@@]2(CCN(C(=O)NCc3cnc4c(c3)CCC4)C2)OCC1=O`, `CCOC(=O)CNC(=O)N1CCC2(CC1)NC(=O)c1ccc(Cl)cc1N2` is higher in Z score: -0.39 for the first, 1.89 for the second.

Compared with `Cc1nccn1[C@@H](C)C(=O)N1CCCCCCC1`, `O=C(CN1CCCCCC1=O)N1CCCCCC1` is higher in Z score: 1.57 for the first, 1.67 for the second.

Compared with `C[C@H](NC(=O)Nc1ccn(C2CCN(C)CC2)n1)c1ccon1`, `CCc1noc(CN2N=C(C(=O)N3CCCCCC3)S(=O)(=O)c3ccc(C)cc32)n1` is higher in Z score: -0.7 for the first, 0.83 for the second.

Compared with `C[C@H]1CN(C)CCN1CC1CCN(C(=O)CCC2CCCCC2)CC1`, `O=C(CCc1nnc(CCc2ccccc2)o1)N1CCC(CN2CCCCC2)CC1` is higher in Z score: 0.81 for the first, 1.04 for the second.

First: Cc1noc(CNC(=O)c2nnc(C(C)(C)C)[nH]2)n1
Second: Cc1nc(N)nc(C)c1Cc1nc(C(C)C)nn1-c1ccccc1
The Z score of the first is lower: 1.15 for the first, 2.35 for the second.

Compared with `Cc1ccc(O)c(C(=O)N2CCc3c(nc(C)nc3N3CCCC3)C2)c1`, `O=C1CC[C@@H](C(=O)NCC2CCN(C(=O)c3cccs3)CC2)N1` is lower in Z score: 1.25 for the first, -0.94 for the second.

Work on `CCN(CC)c1ccc(/C(N)=N/O)cc1` yielded a Z score of -2.84.
